Measured values taken from PubChem BioAssay AID588855 (National Center for Advancing Translational Sciences (NCATS), 2011).
Values joined by “and” are separate entries in the source; they are usually repeats but may differ in a detail not shown here. Identical values can stand only once. About 5,000 (1.2%) of roughly 410,000 compounds were called active. Inconclusive results, whose numbers are uncertain, are shown with a selection of clear calls. Calls come from the whole dose curve; as a rule, active = well fitted inhibition curve with a large enough effect; inconclusive = small, poorly fitted or top-dose-only effect; inactive = no such curve, though single readings can be large or run the other way. Where the call is inconclusive, the potency comes from a doubtful curve fit.
Potency is the fitted concentration of half-maximal effect; tags give direction and shape of the fitted curve.

Assay: qHTS for Inhibitors of TGF-b; note: nearly all actives have a fitted effect of over 65% in size
Conditions: HepG2 CAGA-GFP TGF-b/SMAD3 reporter, GFP fluorescence, 18 h, TGF-beta stimulated, 500 pg/mL final; series mostly up to 46.1 µM
Outline: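 Smad-responsive CAGA-GFP expression was quantified in HEPG2 cells exposed to compounds and 500 pg/mL final TGF-beta for 18 h at 37 degrees C; unstimulated wells defined full inhibition.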
For `COc1cccc(NS(=O)(=O)c2ccc(-c3cc(C)no3)s2)c1`, the Potency was inconclusive: 10 µM [inhibitor, partial curve, poor fit].
For `CCN(CC)P(=O)(Nc1cccc(C(F)(F)F)c1)c1ccc(N(C)C)cc1NC(=O)c1ccco1` (configuration not stated), the Potency was inconclusive: 0.316 µM [inhibitor, full curve, poor fit].
In the case of `COc1ccc(Cl)cc1NC(=O)CN1C(=O)COc2ccc(S(=O)(=O)NC3CCCC3)cc21`, the Potency is reported as inconclusive: 17.8 µM [inhibitor, single point].
In the case of `CN(C)CCNC(=S)Nc1ccc(F)c(F)c1F`, the Potency is reported as “inactive”.
For `CN(C)S(=O)(=O)c1ccc2c(c1)nc(CCC(=O)NCc1ccc(Cl)cc1)n2C`, the Potency was “inactive”.
In the case of `C[C@@H](c1ccccc1)N1Cc2ccccc2Oc2cc(Br)ccc2S1(=O)=O`, the Potency is reported as inconclusive: 20 µM [inhibitor, single point].
With `CCOC(=O)CCNC(=O)CCNC(=O)C(c1ccccc1)c1ccccc1` the Potency was inconclusive: 6.31 µM [inhibitor, single point].
For `COc1ccc(Cl)cc1-c1cc(C(=O)NC2CCCCC2)[nH]n1`, the Potency was “inactive”.
In the case of `Cn1ncc2cc(NC(N)=S)ccc21`, the Potency is reported as “inactive”.
For `COc1cc(NS(=O)(=O)c2ccc3[nH]c4c(c3c2)CCCCCC4)cc(OC)c1`, the Potency was active: 12.6 µM.
With `Cc1nc2nc(SCC(=O)NCc3ccccc3Cl)nn2c(C)c1Cc1ccccc1` the Potency was inconclusive: 35.5 µM [inhibitor, partial curve, poor fit].
In the case of `Cc1ccc2c(c1)N=C(c1ccccc1)CC(C(Cl)Cl)=N2`, the Potency is reported as inconclusive: 35.5 µM [inhibitor, single point].
In the case of `O=C1Nc2cc(C(=O)N3CCC(N4CCCCC4)CC3)ccc2S/C1=C\c1ccccc1`, the Potency is reported as inconclusive: 35.5 µM [inhibitor, single point].
In the case of `O=C(Nc1cccc([N+](=O)[O-])c1)N(c1ccccc1)c1ccccc1`, the Potency is reported as inconclusive: 8.91 µM [inhibitor, partial curve, poor fit].
For `O=C(Oc1cc(=O)n2ccccc2n1)c1ccccc1`, the Potency was “inactive”.
With `Cc1cccc(C(=O)NC(=S)Nc2ccccc2C(F)(F)F)c1` the Potency was inconclusive: 35.5 µM [inhibitor, single point].
In the case of `O=C(CSS(=O)(=O)O)N1CCN(C(=O)c2ccoc2)CC1`, the Potency is reported as “inactive”.
In the case of `Cc1c2ccncc2cc2c1[nH]c1ccccc12`, the Potency is reported as inconclusive: 25.1 µM [inhibitor, single point].
For `CCC1(c2ccccc2)NC(=O)N(CC(=O)Nc2ccccc2N2CCCCC2)C1=O` (configuration not stated), the Potency was inconclusive: 35.5 µM [inhibitor, single point].
For `COc1cc(/C=N/n2c(SC)nnc(C(C)(C)C)c2=O)ccc1O`, the Potency was active: 3.16 µM.
In the case of `O=C(Nc1ccc(F)cc1F)c1c(C(F)(F)F)ccnc1Oc1cccc(C(F)(F)F)c1`, the Potency is reported as inconclusive: 12.6 µM [inhibitor, partial curve].
With `Cc1ccc(-c2noc(CSc3nnc(Cc4ccccc4)n3-c3cccc(C)c3)n2)cc1` the Potency was inconclusive: 35.5 µM [inhibitor, single point] and inconclusive: 10 µM [inhibitor, partial curve, poor fit].
With `O=C(CNC(=O)c1ccco1)Nc1cc(Cl)ccc1N1CCOCC1` the Potency was inconclusive: 35.5 µM [inhibitor, single point].
In the case of `Cc1ccccc1OCC(O)CN1CCC(C)CC1` (configuration not stated), the Potency is reported as “inactive”.
With `O=C(NCC(c1cccnc1)N1CCc2ccccc2C1)C(=O)Nc1ccc(Cl)cc1` (configuration not stated) the Potency was inconclusive: 14.1 µM [inhibitor, single point].
In the case of `CC(=O)Nc1ccc(NC(=O)C(C)OC(=O)c2cc(S(=O)(=O)N(C)C)ccc2N2CCCC2)cc1` (configuration not stated), the Potency is reported as “inactive”.
With `Cc1cccc(N2CCN(C(=O)c3cnn(-c4cccc(Cl)c4C)c3C3CCNCC3)CC2)c1C` the Potency was active: 17.8 µM.
In the case of `CCn1ccnc1CN(C)Cc1cn(-c2ccc(C)cc2)nc1-c1ccc(F)cc1`, the Potency is reported as inconclusive: 35.5 µM [inhibitor, single point].
With `Cc1cccc(OCC(=O)N/N=C\c2cn(C)c3ccccc23)c1` the Potency was inconclusive: 4.47 µM [inhibitor, full curve, poor fit].
With `Cc1ccc(Nc2nc(N)nc(CCl)n2)c(C)c1` the Potency was “inactive”.
With `CN(C)S(=O)(=O)c1ccc(C(=O)NN2C(=O)NC3(CCCCC3)C2=O)cc1` the Potency was inconclusive: 0.794 µM [inhibitor, full curve, poor fit].
With `O=C(NC1CCCc2c1cnn2-c1ccccc1F)c1ccccc1N1CCOCC1` (configuration not stated) the Potency was inconclusive: 35.5 µM [inhibitor, single point].
With `COc1cc2c(C(F)(F)F)c(-c3ccsc3)oc(=O)c2cc1OC` the Potency was inconclusive: 11.2 µM [inhibitor, partial curve, poor fit].
In the case of `Cc1c(C(=O)OC(C)C)[nH]c2c1C(=O)CC(C)(C)C2`, the Potency is reported as inconclusive: 22.4 µM [inhibitor, single point].
In the case of `CCCC(C)(C)C(=O)N1CCC1(C)C(=O)Nc1cccc(OC)c1` (configuration not stated), the Potency is reported as inconclusive: 35.5 µM [inhibitor, single point].
With `CCN(C(=O)CCn1cnc2onc(-c3ccc(F)cc3)c2c1=O)c1ccc(OC)cc1` the Potency was inconclusive: 20 µM [inhibitor, single point].
With `CCN1CCCC1CN(Cc1cc2ccc(C)c(C)c2[nH]c1=O)C(=O)Nc1ccccc1OC` (configuration not stated) the Potency was inconclusive: 35.5 µM [inhibitor, single point].
For `CCOC(=O)c1c(NC(=O)CSc2nc3ccc(OC)cc3[nH]2)sc2c1CC(C)(C)NC2(C)C`, the Potency was inconclusive: 35.5 µM [inhibitor, single point].
For `OC(COc1c(Cl)cc(Cl)cc1Cl)CN1CCCCC1` (configuration not stated), the Potency was “inactive”.
With `O=C(CN1CCN(Cc2ccccc2F)C1=O)NCCN1CCOCC1` the Potency was inconclusive: 35.5 µM [inhibitor, single point].
With `Cc1cccc(OCc2occc2C(=O)Nc2cccc(-n3cnnn3)c2)c1` the Potency was “inactive”.
With `O=C(CCS(=O)(=O)c1nc(-c2ccc3c(c2)OCO3)cc(C(F)(F)F)n1)Nc1ccccc1F` the Potency was inconclusive: 12.6 µM [inhibitor, partial curve, poor fit].
